# Laboratory results: PubChem BioAssay AID686970 (National Center for Advancing Translational Sciences (NCATS), 2013)
# Out of some 360,000 compounds screened, about 6,000 (1.7%) were called active. The inconclusive results got no clear call from the source; some entries with a clear call stand among them for comparison. The call rests on the fitted dose curve; in most records, active means well fitted cell-killing curve with a large enough effect; inconclusive means small, poorly fitted or top-dose-only effect, or effect the other way; inactive means flat fitted curve, though single readings scatter. Potencies of inconclusive entries are left out as doubtful fits.
# Assay: qHTS for induction of synthetic lethality in tumor cells producing 2HG: qHTS for the HT-1080-NT fibrosarcoma cell line;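 further: NT is the 2HG producing partner of a matched IDH1 knockdown line; nearly all actives have a fitted effect of over 55% in size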;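 on activity, negative = less viability: 0% = DMSO-treated cells and -100% = media-only wells without cells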
# Conditions: HT-1080-NT fibrosarcoma viability, CellTiter-Glo ATP luminescence, 48 h; activity, negative = less viability: at 46.1 µM (top of the series) unless noted
# In short: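 HT-1080-NT; 750 cells/well; 5% FBS RPMI; 48 h compound, 37 degrees C; CellTiter-Glo luminescence; curve fitting and curve-class assignment.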
# Potency means the concentration at half of the fitted maximal effect; tags describe the fitted curve by direction and shape.
SMILES,Potency,"activity, negative = less viability"
O=c1[nH]c(CSc2cccc[n+]2[O-])nc2ccccc12,inactive,
CC(C)C(=O)Nc1csc(C(F)(F)F)c1-c1ccccc1,inactive,
COc1ccc2nc(C)cc(SCC(=O)N/N=C/c3ccc(O)cc3O)c2c1,"inconclusive [cytotoxic, partial curve]",
COc1ccc(C(C)(C)C)cc1NC(=O)c1[nH]c(C)c(C(C)=O)c1C,"inconclusive [cytotoxic, single point]",
CCN1CCN(C(=O)c2ccc(CSc3ccc(C)cc3)cc2)CC1,"inconclusive [cytotoxic, single point]",
COC(=O)C[C@@H]1OC[C@H](Cc2ccccc2)N1S(=O)(=O)c1ccc(C)cc1,inactive,
NC(=O)c1ccsc1NC(=O)COC(=O)Cc1cccc2ccccc12,inactive,
CC(OC(=O)c1oc2ccccc2c1CSC1CCCCC1)C(=O)NC(N)=O (centres undefined),"inconclusive [cytotoxic, single point]",
COc1ccccc1CNc1nc(NCc2ccccc2OC)c2sccc2n1,active: 20.6 µM,
COc1ccc(CNc2ccc(-c3ccc(OC)cc3)nn2)cc1,"inconclusive [cytotoxic, single point]",
CN1CCN(c2ccc(S(=O)(=O)N3CCCCC3)cc2NC(=O)/C=C/c2ccc(OC(F)F)cc2)CC1,"inconclusive [cytotoxic, partial curve]",
Cc1cnn(C(=S)NCCc2ccccc2)c1,,inconclusive: 30.1%
COc1ccc(C)cc1S(=O)(=O)n1ccnc1C,inactive,
Cc1[nH]c2ccccc2c1CN1CCN(c2ccccn2)CC1,inactive,
C=CCN(CC=C)C(=S)NC(=O)c1ccc(OC)c(Br)c1,"inconclusive [cytotoxic, full curve]",
CC(=O)N=c1c(C#N)cc2c(=O)n3cccc(C)c3nc2n1CCCOC(C)C,"inconclusive [rising, single point]",
NC(=O)c1ccc(NC(=O)COC(=O)c2ccccc2SCC(=O)N2CCCC2)cc1,inactive,
Cc1ccccc1OC1CCN(C(=O)C2CCC(=O)N(C3CCCC3)C2)CC1 (centres undefined),"inconclusive [cytotoxic, single point]",
CCN(CC)CCN1C(=O)C(O)=C(C(=O)c2cc3cccc(OC)c3o2)C1c1ccc(F)cc1 (centres undefined),"inconclusive [rising, single point]",
CCN(CC)CCNC(=O)C(=O)Nc1cc2c3c(c1)CCC(=O)N3CCC2,inactive,
CCN(CC)c1ccc(C(=O)OCc2cc(=O)oc3cc(O)ccc23)cc1,"inconclusive [cytotoxic, partial curve]",
CC(C(=O)N1CCc2ccccc21)N1CCN(c2cccc(C(F)(F)F)c2)CC1 (centres undefined),"inconclusive [cytotoxic, single point]",
c1ccc(-c2ccccc2OCCOCCN2CCCCC2)cc1,inactive,
Cc1cc(Cl)nc(Cl)c1C(=O)NCc1ccc(Cl)cc1,inactive,
O=C1CC2(CCN(C(=O)c3ccc(F)cc3)CC2)Oc2ccccc21,inactive,

SMILES,Potency,"activity, negative = less viability"
C=CCSC(=C(C#N)C#N)c1cc2c([nH]1)CCCC2,active: 16.4 µM,
CS(=O)(=O)Nc1cccc(NC(=O)c2cccc3c(-c4cccc(C(N)=O)c4)coc23)c1,"inconclusive [cytotoxic, single point]",
COc1ccc(/C=C/C(=O)Nc2ccccc2)cc1OC,,inconclusive: 8.48%
COc1cccc(C(=O)CSc2nnc(COc3cccc4cccnc34)o2)c1,"inconclusive [cytotoxic, single point]",
CC(C)c1ccc(NC(=O)c2ccc3c(c2)C(=O)N(Cc2cccnc2)C3=O)cc1,"inconclusive [cytotoxic, single point]",
O=c1[nH]nc(Sc2ncnc3sccc23)n1CCc1ccccc1,active: 18.4 µM,
Fc1ccc(-c2csc(Nc3ccccn3)n2)c(F)c1,"inconclusive [cytotoxic, single point]",
CCCCCCc1cc2cc(S(=O)(=O)c3ccc(F)c(Cl)c3)c(=O)oc2cc1O,active: 16.4 µM,
C=C1CC(COc2ccc3c(C)c(Cl)c(=O)oc3c2)(c2ccccc2)OC1=O (centres undefined),active: 16.4 µM,
O=C1c2ccccc2NC(c2ccc(Cl)cc2Cl)N1O (centres undefined),"inconclusive [cytotoxic, partial curve]",
Cc1ccc2oc(-c3cccc(NC(=O)C4CCCO4)c3)nc2c1 (centres undefined),"inconclusive [cytotoxic, single point]",
Oc1ccc(-c2csc(Nc3ccccn3)n2)cc1,,inconclusive: -30.3% [cytotoxic]
CN1/C(=C\C(=S)Nc2ccccc2)C(C)(C)c2ccccc21,"inconclusive [cytotoxic, single point]",
Nc1cccc2c1C(=O)N(C(=O)/C=C/c1ccc(F)cc1)C2=O,"inconclusive [cytotoxic, partial curve, poor fit]",
NC(=O)C1(Nc2ccc(-c3ccc(Cl)cc3)cc2)CCCC1,inactive,
COc1ccc(CNS(=O)(=O)c2ccc(Br)s2)cc1,inactive,
COc1cc2nc(N3CCN(C(=O)OCc4ccccc4)[C@H](C(=O)NC(C)(C)C)C3)nc(N)c2cc1OC,active: 18.4 µM,
C[C@H]1CN([C@@H](C)CO)C(=O)c2cc(C#Cc3ccccn3)cnc2O[C@@H]1CN(C)Cc1ccccc1,inactive,
O=C(CN1c2ccccc2Sc2ccccc21)NNC(=S)Nc1ccc(Cl)cc1,"inconclusive [cytotoxic, partial curve]",
CSc1nc(C2CC2)cc(-c2cccs2)c1C#N,active: 31.6 µM,
CCOC(=O)c1cccc(NC(=O)C2CCCO2)c1 (centres undefined),inactive,
Cc1cccc(C(=O)Nc2sc3c(c2C(=O)O)CCC3)c1,"inconclusive [cytotoxic, single point]",
O=C(/C=C/c1ccccn1)c1cc(Cl)cc(Cl)c1O,active: 16.4 µM,
CN(Cc1ccccc1)C(=O)C1CCCN(Cc2cccc(Cl)c2)C1 (centres undefined),"inconclusive [cytotoxic, single point]",
CCCCCCCCC1=NCCc2c1[nH]c1ccccc21,"inconclusive [cytotoxic, single point]",

SMILES,Potency,"activity, negative = less viability"
Cc1ccc(C(=O)CN(CCCC(N)=O)S(=O)(=O)c2ccc([N+](=O)[O-])cc2)cc1,inactive,
O=C(COc1ccc(Br)cc1CNCCc1ccccc1)NCc1ccccc1,active: 20.6 µM,
Cc1ccc2nc(N3CC(=O)Nc4ccccc43)nc(-c3ccccc3)c2c1,active: 18.4 µM,
O=S(=O)(c1cccc(C(F)(F)F)c1)N1c2ccccc2-n2cccc2C1c1cccnc1 (centres undefined),"inconclusive [cytotoxic, single point]",
CCOC(=O)/C(=C\c1cccc(O)c1)c1nc2sc(C)c(C)c2c(=O)[nH]1,"inconclusive [cytotoxic, partial curve]",
O=C(CSc1cccs1)Nc1ccc2ccccc2c1,"inconclusive [rising, full curve, poor fit]",
COc1ccc(N=C(c2ccccc2)c2c(C)[nH]n(-c3ccccc3)c2=O)c(OC)c1,inactive,
COc1ccccc1C(=O)N/C(=C/c1ccccc1)C(=O)Nc1ccc(C(=O)O)cc1,inactive,
COC(=O)c1ccc(Cl)c(NS(=O)(=O)c2ccc3c(c2)OCCO3)c1,,inconclusive: -38.7% [cytotoxic]
Cc1ccc2[nH]c(C(=O)O)c(NC(=O)CN3CCN(c4cccc(C)c4C)CC3)c2c1,"inconclusive [cytotoxic, partial curve]",
O=C(c1ccc(Cl)cc1Cl)N1CCC(c2nc3c(nnn3Cc3ccco3)c(=O)[nH]2)CC1,"inconclusive [cytotoxic, partial curve]",
Cc1nc2sc(C(=O)c3ccccc3)c(N)c2c2c1CCCC2,"inconclusive [cytotoxic, single point]",
O=[N+]([O-])c1ccc(Cl)c(S(=O)(=O)NCCc2ccccn2)c1,inactive,
O=C(CN1CCCCCC1)Nc1ccccc1OC(F)F,inactive,
Cc1ccc2[nH]c(=O)c(CN(Cc3cccs3)Cc3nnnn3CC3CCCO3)cc2c1 (centres undefined),"inconclusive [cytotoxic, full curve, poor fit]",
Cc1ccc(C)c(OCC(O)CN2CCN(CCN3C(=O)c4cccc5cccc(c45)C3=O)CC2)c1 (centres undefined),active: 16.4 µM,
CC1CCc2sc(C(=O)NCC(c3ccco3)N3CCCCC3)cc2C1 (centres undefined),"inconclusive [cytotoxic, single point]",
Cc1ccc(-c2c[n+](CC(=O)Nc3nc(-c4ccc(F)cc4)cs3)c3n2CCC3)cc1,active: 20.6 µM,
Cc1csc(N/N=C/c2ccc([N+](=O)[O-])cc2)n1,"inconclusive [cytotoxic, single point]",
O=C1N[C@@H](Cc2ccccc2)COC(=O)[C@H](Cc2ccc(F)cc2)C/C=C\C[C@@H]1CC(=O)N(CCO)Cc1ccccc1,inactive,
CCOc1ccc(C(=O)/C=C/c2ccc(OC)c(OC)c2)cc1,inactive,
Cc1ccc(-c2csc(Cc3nc(-c4ccc5c(c4)CCC(=O)N5)cs3)n2)cc1,"inconclusive [cytotoxic, single point]",
CCCCCCOc1ccc(N2C(=O)CC(S/C(N)=N/N=C(\C)c3cccs3)C2=O)cc1 (centres undefined),"inconclusive [cytotoxic, single point]",
COc1ccccc1C(=O)CSc1nccn1C,"inconclusive [cytotoxic, partial curve, poor fit]",
